From the supplement of paper PMC12217912
Some of the results follow. The full chains were built here from the parent and the listed change. Values near 0.05 are background.

B1: TEV protease; numbered along this chain (parent)
chain: MGESLFKGPRDYNPISSSICHLTNESDGHTTSLYGIGFGPFIITNKHLFRRNNGTLVVQSLHGVFKVKDTTTLQQHLVDGRDMIIIRMPKDFPPFPQKLKFREPQREERICLVTTNFQTKSMSSMVSDTSCTFPSGDGIFWKHWIQTKDGQCGSPLVSTRDGFIVGIHSASNFTNTNNYFTSVPKNFMELLTNQEAQQWVSGWRLNADSVLWGGHKVFMVKPEEPFQPVKEATQL

Variants of: B1
Assay: raw area under fraction-flipped curve 0-4 h after induction (AUC4h, not background-subtracted), DNA-recorder readout of cleavage of the substrate (dimensionless); higher = more cleavage of the substrate by the protease variant
Conditions: temperature: 34 °C; time window: 0-4 h after rhamnose induction
Protocol: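 In vivo DNA recorder in E. coli TOP10(DE3) ΔrhaA at 34 °C. Each TEVp single-site mutant (parent TEVp 0) is paired with a single-site variant of the 7-mer TEVs (canonical ENLYFQ|S). The substrate sits between flexible linkers in a Bxb1-sfGFP-TEVs-SsrA fusion, so cleavage stabilises Bxb1 and speeds flipping of a recombination array, read by NGS. The value is the raw area under the fraction-flipped curve over 0-4 h after rhamnose induction (AUC4h), with ≥20 reads per time point. It is not background-subtracted; inactive controls average about 0.047.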
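Note: Bxb1 expression induced with 0.2% (w/v) L-rhamnose at OD600 near 0.5, cultures sampled hourly, flipped fraction per protease–substrate barcode pair counted by paired-end Illumina sequencing.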

| Variant | area with substrate ENLYDQS | area with substrate ENLYEQS | area with substrate ENLYGQS | area with substrate ENLYHQS | area with substrate ENLYIQS | area with substrate ENLYKQS | area with substrate ENLYMQS | area with substrate ENLYPQS | area with substrate ENLYQQS | area with substrate ENLYRQS | area with substrate ENLYSQS | area with substrate ENLYTQS | area with substrate ENLYVQS | area with substrate ENLYYQS | area with substrate ENLYNQS | area with substrate ENLYWQS | area with substrate ENLYLQS |
| --- | --- | --- | --- | --- | --- | --- | --- | --- | --- | --- | --- | --- | --- | --- | --- | --- | --- |
| K142W | 0.0544 | 0.0651 | 0.0627 | 0.0588 | 0.0727 | 0.0611 | 0.0694 | 0.0709 | 0.074 | 0.071 | 0.0607 | 0.0617 | 0.079 | 0.0633 | – | – | – |
| I145V | 0.0844 | 0.074 | – | 0.0755 | – | 0.04 | 0.107 | 0.0487 | – | 0.0583 | – | – | 0.148 | 0.0606 | 0.0693 | 0.0932 | – |
| Q146D | 0.0465 | 0.0784 | 0.0536 | 0.0656 | – | 0.059 | – | – | 0.0493 | 0.0496 | 0.0798 | – | 0.128 | – | 0.0707 | 0.0881 | – |
| Q146P | 0.0472 | – | 0.0651 | 0.09 | 0.121 | 0.0788 | 0.102 | 0.0853 | 0.0123 | 0.0646 | 0.0503 | 0.13 | 0.13 | – | – | 0.093 | 0.0932 |
| Q146V | 0.0587 | 0.0719 | – | 0.0812 | – | – | 0.0805 | – | – | – | 0.0757 | 0.0866 | 0.114 | – | – | 0.072 | – |
| T147R | 0.0608 | 0.0581 | 0.0537 | 0.049 | – | 0.047 | 0.0584 | 0.0468 | 0.0673 | 0.0601 | 0.0501 | – | – | 0.0621 | 0.0572 | 0.0572 | – |
| S158N | 0.0534 | 0.0543 | 0.0438 | 0.0585 | 0.0876 | – | 0.0628 | – | – | – | – | – | 0.0995 | – | 0.0609 | 0.0782 | – |
| G162D | 0.0605 | 0.0668 | 0.0662 | – | – | 0.0654 | 0.0831 | 0.0717 | 0.0526 | 0.0585 | – | – | 0.061 | 0.0727 | – | – | – |
| G162F | 0.07 | 0.0312 | 0.062 | 0.06 | – | 0.071 | 0.076 | – | 0.064 | – | – | 0.0638 | – | 0.0539 | 0.0501 | 0.0777 | 0.0618 |
| I164G | 0.0591 | 0.0573 | 0.0625 | 0.0512 | – | 0.0621 | 0.059 | 0.0364 | 0.0549 | 0.0549 | 0.0429 | – | 0.0569 | 0.063 | 0.0575 | 0.0317 | – |
| I167R | 0.0536 | 0.0343 | 0.059 | 0.0516 | 0.0305 | 0.0576 | – | – | 0.0394 | 0.0435 | 0.0364 | – | – | – | 0.05 | – | 0.0592 |
| A170T | 0.063 | – | – | – | – | – | – | – | – | – | 0.0616 | – | – | – | 0.078 | 0.051 | – |
| A170Y | 0.0654 | 0.0534 | 0.0526 | 0.0721 | – | 0.0621 | – | 0.0603 | 0.0732 | – | – | – | 0.058 | 0.0352 | 0.0628 | 0.0561 | – |
| N177C | 0.0752 | 0.0696 | 0.0744 | 0.0728 | 0.128 | – | – | 0.131 | – | – | 0.0799 | – | 0.131 | 0.0421 | 0.0697 | – | – |
| N177P | 0.07 | 0.0656 | 0.0553 | 0.0544 | 0.0469 | 0.0471 | 0.0768 | 0.0627 | 0.0604 | 0.0667 | – | – | – | 0.0683 | 0.0567 | 0.058 | 0.0547 |
| Y179R | 0.0587 | 0.0525 | 0.073 | 0.0385 | – | 0.0516 | 0.0567 | 0.0644 | 0.0597 | 0.0634 | 0.0481 | – | 0.0495 | 0.0299 | 0.0536 | 0.0673 | – |

| Variant | area with substrate ENLYDQS | area with substrate ENLYEQS | area with substrate ENLYGQS | area with substrate ENLYHQS | area with substrate ENLYIQS | area with substrate ENLYKQS | area with substrate ENLYMQS | area with substrate ENLYPQS | area with substrate ENLYQQS | area with substrate ENLYRQS | area with substrate ENLYSQS | area with substrate ENLYTQS | area with substrate ENLYVQS | area with substrate ENLYYQS | area with substrate ENLYNQS | area with substrate ENLYWQS | area with substrate ENLYLQS |
| --- | --- | --- | --- | --- | --- | --- | --- | --- | --- | --- | --- | --- | --- | --- | --- | --- | --- |
| T181F | 0.0566 | 0.0558 | – | 0.0627 | 0.062 | 0.0582 | – | – | 0.0571 | 0.0617 | 0.0988 | 0.0568 | 0.0492 | 0.0448 | 0.0631 | – | 0.0613 |
| K185M | 0.0666 | 0.0555 | 0.0644 | 0.0699 | 0.178 | 0.0571 | 0.0788 | 0.0852 | – | 0.0484 | – | – | – | 0.0668 | 0.0706 | 0.0514 | 0.0908 |
| K185S | 0.0754 | 0.0607 | – | 0.0706 | – | 0.0892 | – | 0.0665 | 0.0629 | 0.0538 | 0.0753 | 0.0617 | – | 0.0665 | 0.0645 | 0.0865 | – |
| M188N | 0.0554 | 0.0646 | – | 0.0642 | – | 0.0484 | 0.0819 | – | – | 0.0724 | 0.0775 | – | – | – | 0.0679 | – | 0.0806 |
| Q194N | 0.0675 | 0.064 | 0.0567 | 0.0409 | – | 0.103 | 0.0858 | 0.083 | 0.0676 | – | – | – | – | – | 0.0817 | 0.0588 | – |
| E195N | 0.0529 | 0.082 | 0.0752 | 0.0752 | – | 0.0722 | – | 0.0261 | – | 0.0582 | – | – | 0.122 | – | 0.0597 | 0.0806 | – |
| A196W | 0.0426 | 0.0484 | – | – | – | 0.0583 | – | – | 0.0714 | 0.0772 | 0.0631 | – | – | 0.0438 | 0.0551 | 0.0556 | – |
| Q198A | 0.0591 | 0.0681 | 0.0499 | – | – | 0.0573 | 0.0873 | 0.0602 | 0.0681 | – | 0.0719 | 0.0704 | 0.0935 | 0.0652 | 0.0603 | 0.0886 | – |
| Q198T | 0.0566 | 0.0709 | 0.0628 | 0.0542 | 0.131 | 0.0672 | 0.0888 | 0.0614 | 0.0644 | 0.0604 | – | – | 0.124 | – | – | – | – |
| G202R | 0.0737 | – | 0.0211 | 0.0713 | – | 0.0725 | 0.0632 | – | 0.0554 | – | 0.0583 | – | 0.0753 | – | 0.0596 | 0.0495 | – |
| A207T | 0.0615 | 0.0617 | 0.0669 | 0.0733 | 0.124 | 0.0774 | 0.0986 | 0.0963 | 0.0667 | 0.0493 | 0.0792 | 0.0782 | – | – | 0.0649 | 0.0746 | – |
| G214D | 0.0589 | 0.0854 | 0.0542 | 0.0696 | – | 0.0656 | 0.0713 | 0.0575 | – | 0.0583 | – | – | – | 0.0763 | 0.072 | – | – |
| F218N | 0.0649 | 0.0584 | – | 0.0701 | 0.0936 | – | – | 0.077 | 0.0585 | 0.0699 | – | – | 0.0915 | – | – | 0.0628 | – |
| M219T | 0.0624 | 0.0644 | 0.0725 | 0.0347 | – | 0.0541 | 0.0935 | 0.0642 | – | – | – | – | 0.075 | – | 0.0819 | – | 0.078 |
| P222A | 0.0601 | 0.0628 | 0.0692 | 0.14 | – | – | – | 0.0743 | – | – | 0.0642 | – | – | 0.0618 | 0.0585 | 0.0922 | 0.0646 |
